Experimental data: the antibiotic and cytotoxicity screens of Wong et al. (2023)
Some of the results follow.

What follows are compounds tested on S. aureus RN4220 (assay: growth inhibition call (relative growth <= 0.2)). Conditions: 50 µM.

Growth inhibition call, inactive:
C[C@@H]1CN([C@@H](C)CO)C(=O)c2cc(C#CCc3ccccc3)cnc2O[C@@H]1CN(C)C(=O)Cc1cccnc1
Cc1ccc(S(=O)(=O)Nc2ccc3c(c2)CC(=O)N([C@H](C)CO)C[C@H](C)[C@H](CN(C)S(=O)(=O)c2cn(C)cn2)O3)cc1
CC(C)c1noc(CNC(=O)CN)n1
C[C@@H]1CN([C@@H](C)CO)C(=O)c2cccc(NC(=O)Nc3cccc4ccccc34)c2O[C@H]1CN(C)C(=O)Nc1ccc2c(c1)OCO2
C[C@H](CO)N1C[C@H](C)[C@@H](CN(C)S(C)(=O)=O)OCc2cn(nn2)CCCC1=O
C[C@@H]1CN([C@@H](C)CO)C(=O)c2cc(-c3ccc(F)cc3)cnc2O[C@H]1CN(C)C(=O)Cc1ccccn1
C[C@@H]1CN([C@@H](C)CO)C(=O)CCCn2nncc2CO[C@@H]1CN(C)C(=O)Nc1ccc(C(F)(F)F)cc1
Cc1noc(C)c1NC(=O)Nc1ccc2c(c1)CC(=O)N([C@H](C)CO)C[C@H](C)[C@@H](CN(C)S(=O)(=O)c1cccs1)O2
NNC(=O)[C@H]1C[C@H]2C[C@@H]1C[C@@H]2C(=O)NN
C[C@H](O)C#Cc1ccc2c(c1)O[C@@H](CN(C)C(=O)C1CCCCC1)[C@H](C)CN([C@@H](C)CO)S2(=O)=O
C[C@@H]1CN([C@@H](C)CO)C(=O)c2cc(NC(=O)Nc3cccc4ccccc34)ccc2O[C@H]1CN(C)C(=O)Nc1ccc2c(c1)OCO2
C[C@H](CO)N1C[C@H](C)[C@H](CN(C)Cc2ccc(Cl)c(Cl)c2)Oc2ccc(NC(=O)Cn3cnnn3)cc2CC1=O
